# In PubChem BioAssay AID624418 (National Center for Advancing Translational Sciences (NCATS), 2012):
# In all, about 410,000 compounds went through this assay and about 530 (0.13%) were called active. Inconclusive results, whose numbers are uncertain, are shown with a selection of clear calls. Calls follow the shape of the dose curve; as a rule, active = well fitted inhibition curve with a large enough effect; inconclusive = small, poorly fitted or top-dose-only effect, or another doubt; inactive = no such curve, though single readings can be large or run the other way. A potency beside an inconclusive call is a rough fit, not a confirmed value.
# Assay: qHTS of GLP-1 Receptor Inverse Agonists: Cytotox Screen
# Conditions: HEK293 cAMP-luciferase reporter cells, luminescence, 24 h; activity change, negative = inhibition: at 38.3 µM (top of the series) unless noted
# Outline: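 MLSMR compounds, 24 hr on cells at 37 deg C/5% CO2; luminescence after luciferase reagent (12 min RT). Inhibition counted as the undesired cytotoxic outcome.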
# % is scaled to controls: 0 for no effect and ±100 for the full control effect; potency is read from the fitted curve at half-maximal effect.
SMILES,Potency,"activity change, negative = inhibition"
Cc1cc(N/N=C/c2cccc(F)c2)nc(NCc2ccccc2)n1,"inconclusive: 28.2 µM [inhibitor, single point]",–
CNc1oc(-c2cccs2)nc1S(=O)(=O)c1ccccc1,inactive,–
O=C(/C=C/c1ccc(Cl)c([N+](=O)[O-])c1)c1ccc(O)cc1,"inconclusive: 28.2 µM [inhibitor, single point]",–
CCOC(=O)[C@H]1[C@H]2COc3ccc(Cl)cc3[C@@H]2N2C(=O)c3ccc(Cl)cc3NC(=O)[C@@]12C,"inconclusive: 1.26 µM [inhibitor, partial curve, poor fit]",–
Nc1ncnc(Sc2ccc(Cl)cc2)c1[N+](=O)[O-],inactive,–
COC(=O)c1cc(S(=O)(=O)NCC2CCN(CCc3cccs3)CC2)cn1C,"inconclusive: 10 µM [inhibitor, partial curve]",–
Cc1cc(C)cc(NC(=O)c2ccc([N+](=O)[O-])o2)c1,"inconclusive: 11.2 µM [inhibitor, single point]",–
Oc1[nH]c2ccc(Br)cc2c1N=NC(=S)NCC1CCCO1 (configuration not stated),"inconclusive: 1.58 µM [inhibitor, partial curve, poor fit]",–
COc1ccccc1NC(=O)Nc1cc(NC(=O)Nc2ccccc2OC)c(C)nc1C,"inconclusive: 11.2 µM [inhibitor, partial curve, poor fit]",–
COCCNC(=O)CS(=O)Cc1nc(-c2ccc(Cl)cc2)oc1C (configuration not stated),"inconclusive: 15.8 µM [inhibitor, single point]",–
COc1cc(C(=O)N/N=C/c2sc(=O)n(-c3ccccc3)c2Cl)cc(OC)c1OC,inactive,–
CC(=O)N1CCN(CC(=O)Nc2ccccc2Sc2ccc(Cl)cc2)CC1,inactive,–
COc1ccccc1N1CCN(C2CCCN(C(=O)c3cccc(-c4ccco4)c3)C2)CC1 (configuration not stated),"inconclusive: 28.2 µM [inhibitor, single point]",–
COc1ccc(/C=N/Nc2nc(Nc3ccccc3)nc(N3CCCCC3)n2)cc1OC,"inconclusive: 28.2 µM [inhibitor, single point]",–
Cc1ccc(NC2=C(N3CCCCC3)C(=O)c3ccccc3C2=O)cc1,"inconclusive: 1.58 µM [inhibitor, full curve, poor fit]",–
CCS(=O)(=O)c1oc(-c2ccc(F)cc2)nc1S(=O)(=O)c1ccccc1,"inconclusive: 11.2 µM [inhibitor, single point]",–
O=[N+]([O-])/C=C/c1cn(Cc2ccc(F)cc2)c2ccccc12,"inconclusive: 15.8 µM [inhibitor, single point]",–
Cc1ccc(OCCCCN2CCC(C)CC2)c(Br)c1,"inconclusive: 12.6 µM [inhibitor, single point]",–
O=C(O)c1[nH]c2ccccc2c1C(c1cc(Cl)cc([N+](=O)[O-])c1O)c1c(C(=O)O)[nH]c2ccccc12,"inconclusive: 14.1 µM [inhibitor, single point]",–
Cc1cccc(C2c3[nH]c4ccccc4c3CCN2C(=O)c2cc(CC(C)C)nc(C)n2)n1 (configuration not stated),inactive,–
O=C(COC(=O)c1cc([N+](=O)[O-])ccc1N1CCOCC1)NC1CCCCC1,"inconclusive: 28.2 µM [inhibitor, single point]",–

SMILES,Potency,"activity change, negative = inhibition"
CC1CCC(NC(=O)C2c3ccccc3C(=O)N2CCCN2CCOCC2)CC1 (configuration not stated),"inconclusive: 12.6 µM [inhibitor, partial curve, poor fit]",–
CN1CCC(N(C)C(=O)/C=C/c2cn(-c3ccccc3)nc2-c2cccs2)CC1,"inconclusive: 28.2 µM [inhibitor, single point]",–
CC(NC(=O)c1ccc(N2CCNCC2)c([N+](=O)[O-])c1)C12CC3CC(CC(C3)C1)C2 (configuration not stated),"inconclusive: 22.4 µM [inhibitor, single point]",–
CN(C)CCNc1ccc2nnn3c4ccc(O)cc4c(=O)c1c23,"inconclusive: 14.1 µM [inhibitor, partial curve, poor fit]",–
C=CCN(c1ccccc1OC)S(=O)(=O)c1cccc(C(=O)NCC(c2ccc(OC)cc2)N2CCCC2)c1 (configuration not stated),"inconclusive: 22.4 µM [inhibitor, single point]",–
Fc1ccc2nc(Nc3ccccc3)sc2c1,–,inactive: -3.87% [at 0.307 µM]
CCNc1nc(C)cc(COC)c1C#N,inactive,–
CC/C(=N\NC(=S)Nc1cccc(C)c1)c1ccccc1,"inconclusive: 3.55 µM [inhibitor, full curve]",–
CSc1nc2c(sc3ccccc32)c(=O)n1Cc1ccc(C)cc1,inactive,–
Cc1ccc(O)c(NC(=O)c2ccc3c(c2)C(=O)N(CC(C)C)C3=O)c1,inactive,–
COc1cc(NC(=O)C(=O)NNC(=O)C2CCCCC2)c(OC)cc1Cl,"inconclusive: 28.2 µM [inhibitor, single point]",–
S=C(NCc1ccccc1)Nc1ccc(Oc2ccccc2)cc1,"inconclusive: 10 µM [inhibitor, partial curve, poor fit]",–
COc1ccc(-n2nc3cc(C)c(NC(=O)Cc4ccc(Cl)cc4)cc3n2)cc1,inactive,–
Cc1cccc2cc(CN(CC3CCCO3)C(c3nnnn3Cc3ccco3)C(C)C)c(=O)[nH]c12 (configuration not stated),"inconclusive: 5.62 µM [inhibitor, partial curve, poor fit]",–
CCn1c(=O)c(C(=O)NCc2ccccc2)c(O)c2ccccc21,inactive,–
CSCCC(NC(=O)c1ccc(Cl)c([N+](=O)[O-])c1)C(=O)N1CCN(C/C=C/c2ccccc2)CC1 (configuration not stated),"inconclusive: 28.2 µM [inhibitor, single point]",–
O=C(NC(=S)NCCC1=CCCCC1)c1ccc(Br)o1,"inconclusive: 31.6 µM [inhibitor, single point]",–
CCCC12CN3CC(CCC)(CN(C1)C3c1ccc(OC(C)C)cc1)C2=O (configuration not stated),inactive,–
COc1cc(NC(=O)CSc2ccc(-c3ccccn3)nn2)cc(OC)c1,"inconclusive: 28.2 µM [inhibitor, single point]",–
O=C(CSc1nc(-c2ccc(F)cc2)[nH]c1-c1ccc(F)cc1)Nc1ccc2c(c1)OCO2,"inconclusive: 28.2 µM [inhibitor, single point]",–
CC/C(=N\Nc1ccc([N+](=O)[O-])cc1[N+](=O)[O-])c1ccc(O)cc1,inactive,–
